In all, about 48,000 compounds went through this assay and about 550 (1.1%) were called active. Another 4% or so got no clear call; they are omitted. No stated cut-off is given here; in the data, active means potency below about 15 µM; inconclusive means mostly about 16 µM to 33 µM; inactive means weaker than that. The list shows a part of the results. Some results are limits rather than exact numbers.

Consider 58 compounds from PubChem BioAssay AID360 (National Center for Advancing Translational Sciences (NCATS), 2006).
Potency means the concentration at half of the fitted maximal effect.

Chain of UniProt P04062 (P04062 whole entry, looked up): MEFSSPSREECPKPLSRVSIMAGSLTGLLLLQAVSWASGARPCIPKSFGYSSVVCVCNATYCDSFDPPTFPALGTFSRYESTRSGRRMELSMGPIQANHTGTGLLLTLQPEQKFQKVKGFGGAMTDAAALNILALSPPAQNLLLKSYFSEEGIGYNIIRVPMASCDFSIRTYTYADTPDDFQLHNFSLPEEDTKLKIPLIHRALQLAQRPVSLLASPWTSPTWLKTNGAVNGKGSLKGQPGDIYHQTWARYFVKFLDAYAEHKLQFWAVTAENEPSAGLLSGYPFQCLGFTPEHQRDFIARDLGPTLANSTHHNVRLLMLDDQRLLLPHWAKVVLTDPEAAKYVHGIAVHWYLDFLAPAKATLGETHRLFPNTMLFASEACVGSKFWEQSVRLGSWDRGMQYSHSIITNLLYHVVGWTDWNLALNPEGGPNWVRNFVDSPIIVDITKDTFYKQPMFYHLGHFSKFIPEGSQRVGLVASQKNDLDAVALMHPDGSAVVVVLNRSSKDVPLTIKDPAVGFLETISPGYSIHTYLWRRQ

The test addresses Lysosomal acid glucosylceramidase (Homo sapiens) (UniProt P04062). The experiment in a line: Glucocerebrosidase.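 Further: the screen sought inhibitors.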 Particulars: purified enzyme, resorufin glucoside fluorescence (screen aimed at inhibitors), 20 min. In outline:
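Normal human glucocerebrosidase (0.2 nM final) was assayed with resorufin β-D-glucopyranoside (30 uM final) in 50mM citric acid/KH2PO4, 10mM sodium taurocholate, 0.01% tween-20, pH 5.9. Compounds were titrated; fluorescence (Ex 548, Em 600) read after 20 min at RT.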
On to `COc1ccc(OC)c(S(=O)(=O)Nc2ccc3oc4c(c3c2)C(=O)CCC4)c1`, for which the Potency was inactive: > 76.9 µM. To `Cc1cc(NC(=O)C2C3C(=O)N(CCC(C)C)C(C(=O)NCc4ccccc4)C34C=CC2(C)O4)no1` (stereo not drawn) belongs inactive: > 76.9 µM; to `Cc1ccc(-n2nc(C)c3c2OC(N)=C(C#N)C3c2ccc(F)cc2)cc1` (stereo not drawn), inactive: > 76.9 µM. To `CCOC(=O)Cc1csc(NC(=O)CSc2nnc(-c3ccc(C)cc3)o2)n1` belongs inactive: > 76.9 µM; to `CC(C)CC(c1nnnn1C(C)(C)C)N1CCN(C2CCCC2)CC1` (stereo not drawn), inactive: > 76.9 µM. Under `O=C(CSc1nc(-c2ccco2)cc(C(F)(F)F)n1)N1CCCc2ccccc21` stands inactive: > 76.9 µM; under `O=S(=O)(N1CCOCC1)n1c(Cc2ccccc2)nc2ccccc21`, inactive: > 76.9 µM. `CCOC(=O)C1CCCN(C(=O)CCC(=O)Nc2ccc3nc(N4CCOCC4)cc(C)c3c2)C1` (stereo not drawn): the Potency is active: 2.59 µM. On to `Cc1nc2nc(-c3ccccc3)cc(=O)n2[nH]1`, for which the Potency is inactive: > 76.9 µM.

`COc1cc(NC(=O)C2CC(=O)NC3=C2C(=O)CC(C)(C)C3)c(OC)cc1Cl` (stereo not drawn): the Potency is inactive: > 76.9 µM. To `Cc1c(C(=O)Nc2ccc(Cl)cn2)oc2ccccc12` belongs inactive: > 76.9 µM. For the compound `CCOCCCNC(=O)C1CCN(S(=O)(=O)N(CC(C)C)CC(C)C)CC1`, the Potency was inactive: > 76.9 µM. Under `COCCN(C(=O)CCC(=O)Nc1ccccn1)C(C(=O)NC1CCCC1)c1ccc(OC)cc1` (stereo not drawn) stands inactive: > 76.9 µM; under `CCCC(C)n1[nH]c(=O)c2c(C)cc(C)nc21` (stereo not drawn), inactive: > 76.9 µM. Under `Cc1cc(C)n2c(SCC(=O)Nc3cc(C)on3)nnc2n1` stands inactive: > 76.9 µM; under `NC(=O)C1(N2CCCCC2)CCN(c2nc(-c3ccccc3)cs2)CC1`, inactive: > 76.9 µM; under `COc1ccc(NC(=O)c2cc(C)on2)cc1OC`, inactive: > 76.9 µM.

Consider `NC(=O)CC(NC(=O)OCc1ccccc1)C(=O)O` (stereo not drawn), for which the Potency is inactive: > 76.9 µM. As for `Cc1sc2nc(SCc3nc4ccccc4[nH]3)n(Cc3ccco3)c(=O)c2c1C`, the Potency was inactive: > 76.9 µM.

In the case of `O=S(=O)(Nc1ccc2c(c1)nc1n2CCN(Cc2ccccc2)C1)c1ccc(F)cc1`, the Potency entry was “inactive”. To `Cn1c(=O)cc(OCCCC(=O)NCc2ccccn2)c2ccccc21` belongs inactive: > 76.9 µM; to `COc1cccc(CN2CCN(C(=O)c3cccc4ccccc34)CC2)c1OC`, inactive: > 76.9 µM.

As for `COC(=O)c1cn(CC(=O)NCc2cccs2)c2ccccc12`, the Potency is inactive: > 76.9 µM.

As to `CC(=O)c1c(C)c[nH]c1C`, the Potency was inactive: > 76.9 µM. Under `CCCn1c(SCC(=O)Nc2ccccc2-c2ccccc2)nnc1-c1ccoc1C` stands inactive: > 76.9 µM.

With `CCn1c(SCC(=O)Nc2ccc3c(c2)OCO3)nnc1-c1ccccc1O`, the Potency was inactive: > 76.9 µM. To `CCc1nnc(NC(=O)Cc2ccc(OCc3c(C)noc3C)cc2)s1` belongs inactive: > 76.9 µM; to `O=C(CN1CCOCC1)NC1CC2CCC1C2` (stereo not drawn), inactive: > 76.9 µM; to `Cc1ccccc1OCC(=O)OC(C)CN1CCN(C)CC1` (stereo not drawn), inactive: > 76.9 µM. To `CCC(=O)c1ccc(OCC(O)CN2CCN(S(=O)(=O)N3CCCCC3)CC2)cc1` (stereo not drawn) belongs inactive: > 76.9 µM; to `COc1ccc2c(c1)N1CCN=C1N2C`, inactive: > 76.9 µM; to `O=C(C1CCN(C2CC(=O)N(c3cccc(Cl)c3)C2=O)CC1)N1CCCCCC1` (stereo not drawn), inactive: > 76.9 µM. Under `O=C(CN1C(=O)COc2ccccc21)NCCCN1CCc2ccccc2C1` stands inactive: > 76.9 µM; under `NC(=O)c1nn(-c2ccccc2)nc1N`, inactive: > 76.9 µM.

On to `CC(C)CCNC(=O)CN(C)S(=O)(=O)c1cccc2nsnc12`, for which the Potency is inactive: > 76.9 µM. To `CCCn1c(SCC(=O)N2CCCC2)nc2c1c(=O)n(C)c(=O)n2C` belongs inactive: > 76.9 µM; to `CCOC(=O)Cc1c(C)c2c(C)[nH]nc2oc1=O`, inactive: > 76.9 µM.

For `Cn1c(=O)c2c(nc(CN3CCOCC3)n2CCN2CCOCC2)n(C)c1=O`, the Potency is inactive: > 76.9 µM. As for `N#Cc1nc(-c2ccc(OCc3ccccc3)cc2)oc1NCc1ccco1`, the Potency is inactive: > 76.9 µM. With `CCOc1ccccc1N1CC(C(=O)Nc2ccccc2N2CCOCC2)CC1=O` (stereo not drawn), the Potency is inactive: > 76.9 µM. Under `COc1ccc(-c2nc(C#N)c(NCC3CCCO3)o2)cc1OC` (stereo not drawn) stands inactive: > 76.9 µM; under `O=C(O)C1C2C=CC(O2)C1C(=O)NCc1ccc2c(c1)OCO2` (stereo not drawn), inactive: > 76.9 µM; under `O=C(Nc1ccc2c(c1)OCO2)c1cccc(Cl)c1`, inactive: > 76.9 µM. To `Clc1ccccc1Cn1nnc2c(NCC3CC3)ncnc21` belongs inactive: > 76.9 µM. Under `C#CCn1cnc2c(cnn2-c2ccc(C)c(C)c2)c1=O` stands active: 15 µM.

Consider `CCn1c(CCC(=O)Nc2cc(F)ccc2C)nc2cc(S(=O)(=O)N(C)C)ccc21`, for which the Potency was inactive: > 76.9 µM. To `CCN1C(=O)c2ccc(C(=O)Nc3nccs3)cc2C1=O` belongs inactive: > 76.9 µM; to `O=S(=O)(NC1=NCCCCC1)c1cccs1`, inactive: > 76.9 µM. For `CCOCCCNC(=O)CN1CCN(c2ccc(F)cc2)CC1`, the Potency is inactive: > 76.9 µM. Under `CCOC(=O)N1CCC(Nc2c(-c3ccc(C)cc3)c(=O)c2=O)CC1` stands inactive: > 76.9 µM. To `COc1ccc(-n2c(SCC(=O)Nc3ccc(C(=O)O)cc3)nnc2-c2cccs2)cc1` belongs inactive: > 76.9 µM. To `CCOc1ncccc1C(=O)OCC(=O)N1CC(=O)Nc2ccccc21` belongs inactive: > 76.9 µM; to `COC(=O)c1ccc2c(c1)NC(=O)C(N1CCOCC1)S2` (stereo not drawn), inactive: > 76.9 µM; to `COc1ccccc1OCC(=O)OCC(=O)Nc1ncc(Cl)cc1Cl`, inactive: > 76.9 µM.

With `Cc1nc(C)c(C(=O)C2=C(O)C(=O)N(CCN3CCOCC3)C2c2cccs2)s1` (stereo not drawn), the Potency is inactive: > 76.9 µM. With `COCCOC(=O)c1c(C)oc2ccc(O)c(CN3CCC(C)CC3)c12`, the Potency was inactive: > 76.9 µM. To `Cc1ccc(-c2nnc3sc(-c4ccc5c(c4)OCCO5)nn23)cc1` belongs inactive: > 76.9 µM; to `CCCC(=O)Nc1cccc2c1CCCC2`, inactive: > 76.9 µM.
